Experimental data as given in US20180305438A1 (ACCELERON PHARMA, published 2018).

T1: hBMP2 (human, UniProt P12643 283-396)
T1 sequence (looked up): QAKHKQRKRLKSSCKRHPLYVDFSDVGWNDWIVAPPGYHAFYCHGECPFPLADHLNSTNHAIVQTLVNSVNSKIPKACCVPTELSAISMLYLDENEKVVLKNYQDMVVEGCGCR

T2: hBMP4 (human, UniProt P12644 293-408)
T2 sequence (looked up): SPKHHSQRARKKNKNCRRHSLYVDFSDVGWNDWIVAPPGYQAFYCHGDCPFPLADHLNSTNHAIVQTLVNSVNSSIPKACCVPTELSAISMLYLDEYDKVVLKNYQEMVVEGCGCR

T3: hBMP6 (human, UniProt P22004 382-513, limits assumed)
T3 sequence (looked up): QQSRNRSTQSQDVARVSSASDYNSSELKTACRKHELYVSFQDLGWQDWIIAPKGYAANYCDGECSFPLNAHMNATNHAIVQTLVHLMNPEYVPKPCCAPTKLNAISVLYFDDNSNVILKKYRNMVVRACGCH

T4: hBMP7 (human, UniProt P18075 293-431)
T4 sequence (looked up): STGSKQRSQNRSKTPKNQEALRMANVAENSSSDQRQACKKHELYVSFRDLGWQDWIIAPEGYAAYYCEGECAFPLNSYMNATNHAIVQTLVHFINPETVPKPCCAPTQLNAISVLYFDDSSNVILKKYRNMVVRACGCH


What was measured:
Assay in all cases: Biacore (SPR); construct expressed in HEK 293 cells
[1] = target: T1, hBMP2
Text: (§1) ALK3 ECD variants with N-terminal deletions of 6, 12, 27, or 31 amino acids, C-terminal deletions of 6 or 12 amino acids, and a double-truncation were expressed in HEK 293 cells and purified by Mab chromatography (Protein A column). Biacore™ methodology was used to screen members of the BMP/GDF/TGFβ ligand superfamily for binding to these variants.

[2] = target: T2, hBMP4
Text: as §1

[3] = target: T3, hBMP6
Text: as §1

[4] = target: T4, hBMP7
Text: as §1

| Binder | Kd [1] [nM] | Kd [2] [nM] | binding result [3] | Kd [4] [nM] | binding result [2] | Kd [3] [nM] | binding result [4] |
| --- | --- | --- | --- | --- | --- | --- | --- |
| hALK3(24-140)-hFc (Fc fusion, Expressed in HEK 293 cells for the assay; also called ALK3CΔ12) QNLDSMLHGTGMKSDSDQKKSENGVTLAPEDTLPFLKCYCSGHCPDDAINNTCITNGHCFAIIEEDDQGETTLASGCMKYEGSDFQCKDSPKAQLRRTIECCRTNLCNQYLQPTLPPTG[skipping human IgG1 Fc and a few adjoining residues] | 0.769 | 0.446 | no binding | 5.9 |  |  |  |
| hALK3(36-152)-hFc (Fc fusion, Expressed in HEK 293 cells; also called ALK3NΔ12) KSDSDQKKSENGVTLAPEDTLPFLKCYCSGHCPDDAINNTCITNGHCFAIIEEDDQGETTLASGCMKYEGSDFQCKDSPKAQLRRTIECCRTNLCNQYLQPTLPPVVIGPFFDGSIRTG[skipping human IgG1 Fc and a few adjoining residues] | 1.04 |  |  |  | no binding | 5.28 | no binding |
| hALK3(30-146)-hFc (Fc fusion, Expressed in HEK 293 cells for the assay; also called ALK3NΔ6CΔ6; double-truncated variant) LHGTGMKSDSDQKKSENGVTLAPEDTLPFLKCYCSGHCPDDAINNTCITNGHCFAIIEEDDQGETTLASGCMKYEGSDFQCKDSPKAQLRRTIECCRTNLCNQYLQPTLPPVVIGPFTG[skipping human IgG1 Fc and a few adjoining residues] | 0.437 | 0.329 | no binding |  |  |  | no binding |
| hALK3(24-146)-hFc (Fc fusion, Expressed in HEK 293 cells for the assay; also called ALK3CΔ6) QNLDSMLHGTGMKSDSDQKKSENGVTLAPEDTLPFLKCYCSGHCPDDAINNTCITNGHCFAIIEEDDQGETTLASGCMKYEGSDFQCKDSPKAQLRRTIECCRTNLCNQYLQPTLPPVVIGPFTG[skipping human IgG1 Fc and a few adjoining residues] | 0.532 | 0.396 | no binding |  |  |  | no binding |
| hALK3(51-152)-hFc (Fc fusion, Expressed in HEK 293 cells; also called ALK3NΔ27) APEDTLPFLKCYCSGHCPDDAINNTCITNGHCFAIIEEDDQGETTLASGCMKYEGSDFQCKDSPKAQLRRTIECCRTNLCNQYLQPTLPPVVIGPFFDGSIRTG[skipping human IgG1 Fc and a few adjoining residues] | 1.57 |  |  | 4.29 | no binding | 8.04 |  |
| hALK3(24-152)-hFc derived from HEK 293 cells (Fc fusion, also called Full Length; full-length ALK3 ECD) QNLDSMLHGTGMKSDSDQKKSENGVTLAPEDTLPFLKCYCSGHCPDDAINNTCITNGHCFAIIEEDDQGETTLASGCMKYEGSDFQCKDSPKAQLRRTIECCRTNLCNQYLQPTLPPVVIGPFFDGSIRTG[skipping human IgG1 Fc and a few adjoining residues] | 0.653 | 1.02 |  | 5.99 |  | 17.3 |  |
| hALK3(30-152)-hFc (Fc fusion, Expressed in HEK 293 cells for the assay; also called ALK3NΔ6) LHGTGMKSDSDQKKSENGVTLAPEDTLPFLKCYCSGHCPDDAINNTCITNGHCFAIIEEDDQGETTLASGCMKYEGSDFQCKDSPKAQLRRTIECCRTNLCNQYLQPTLPPVVIGPFFDGSIRTG[skipping human IgG1 Fc and a few adjoining residues] | 0.869 | 1.61 |  |  |  | 12.8 | no binding |
| hALK3(55-152)-hFc (Fc fusion, Expressed in HEK 293 cells; also called ALK3NΔ31) TLPFLKCYCSGHCPDDAINNTCITNGHCFAIIEEDDQGETTLASGCMKYEGSDFQCKDSPKAQLRRTIECCRTNLCNQYLQPTLPPVVIGPFFDGSIRTG[skipping human IgG1 Fc and a few adjoining residues] | 0.663 |  |  | 3.67 | no binding | 17 |  |
